In publication PMC3088716:
Residue numbers refer to the chain shown, from its start. In names and notes the source's numbering stands. These are yes or no findings as the source states them, for the method shown. Binding seen in cells or lysates may run through a third protein. Some entries that bind do so weakly or less than the wild type. Tags and fused reporters may be left off the sequences shown.

Legend:
[1] = target: T1, HA-tagged Dnttip1 (mouse) (UniProt Q99LB0); experiment: co-IP; FLAG- and HA-tagged proteins co-expressed in HEK293 cells (harvested 24 hrs after transfection); whole cell lysates in MAPK buffer; agarose beads with anti-FLAG or anti-HA antibodies, 4°C, 2.5 hrs
T1 sequence: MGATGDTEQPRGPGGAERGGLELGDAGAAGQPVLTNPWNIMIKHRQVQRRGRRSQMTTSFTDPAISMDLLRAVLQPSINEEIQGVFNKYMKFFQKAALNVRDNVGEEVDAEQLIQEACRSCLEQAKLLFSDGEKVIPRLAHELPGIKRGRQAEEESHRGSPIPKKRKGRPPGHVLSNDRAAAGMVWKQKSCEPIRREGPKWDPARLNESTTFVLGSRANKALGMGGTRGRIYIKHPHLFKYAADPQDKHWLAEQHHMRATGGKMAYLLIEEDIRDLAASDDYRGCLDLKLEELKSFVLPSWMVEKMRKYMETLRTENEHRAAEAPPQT

[2] = target: T2, FLAG-tagged SAEG-2 expressed at the endogenous level in C. elegans (C. elegans) (UniProt Q03615); experiment: co-IP; lysates of mixed-stage C. elegans grown in liquid culture; FLAG-tagged SAEG-2 expressed at the endogenous level, endogenous EGL-4 detected; wild-type, egl-4(gf) and egl-4(n479) backgrounds
T2 sequence: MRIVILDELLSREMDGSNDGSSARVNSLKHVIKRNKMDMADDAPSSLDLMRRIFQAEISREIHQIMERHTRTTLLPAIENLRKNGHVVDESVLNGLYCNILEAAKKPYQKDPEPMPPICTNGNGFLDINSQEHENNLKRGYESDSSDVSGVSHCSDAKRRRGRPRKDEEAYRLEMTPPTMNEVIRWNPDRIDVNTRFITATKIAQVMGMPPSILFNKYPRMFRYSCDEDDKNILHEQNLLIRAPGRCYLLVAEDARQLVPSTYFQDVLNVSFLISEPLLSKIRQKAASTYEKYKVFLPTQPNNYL

[3] = target: T3, HA-tagged SAEG-2 (C. elegans) (UniProt Q03615); experiment: co-IP; FLAG- and HA-tagged proteins co-expressed in Drosophila S2 cells (700 µM copper sulfate, 24 hrs); whole cell lysates in MAPK buffer (10 mM Tris-HCl pH 8.0, 50 mM NaCl, 1 mM EDTA, 1% NP-40); agarose beads with anti-FLAG or anti-HA antibodies, 4°C, 2.5 hrs
T3 sequence: T2 sequence

[4] = target: T4, HA-tagged SAEG-1 (C. elegans) (UniProt Q20733); experiment: as above
T4 sequence: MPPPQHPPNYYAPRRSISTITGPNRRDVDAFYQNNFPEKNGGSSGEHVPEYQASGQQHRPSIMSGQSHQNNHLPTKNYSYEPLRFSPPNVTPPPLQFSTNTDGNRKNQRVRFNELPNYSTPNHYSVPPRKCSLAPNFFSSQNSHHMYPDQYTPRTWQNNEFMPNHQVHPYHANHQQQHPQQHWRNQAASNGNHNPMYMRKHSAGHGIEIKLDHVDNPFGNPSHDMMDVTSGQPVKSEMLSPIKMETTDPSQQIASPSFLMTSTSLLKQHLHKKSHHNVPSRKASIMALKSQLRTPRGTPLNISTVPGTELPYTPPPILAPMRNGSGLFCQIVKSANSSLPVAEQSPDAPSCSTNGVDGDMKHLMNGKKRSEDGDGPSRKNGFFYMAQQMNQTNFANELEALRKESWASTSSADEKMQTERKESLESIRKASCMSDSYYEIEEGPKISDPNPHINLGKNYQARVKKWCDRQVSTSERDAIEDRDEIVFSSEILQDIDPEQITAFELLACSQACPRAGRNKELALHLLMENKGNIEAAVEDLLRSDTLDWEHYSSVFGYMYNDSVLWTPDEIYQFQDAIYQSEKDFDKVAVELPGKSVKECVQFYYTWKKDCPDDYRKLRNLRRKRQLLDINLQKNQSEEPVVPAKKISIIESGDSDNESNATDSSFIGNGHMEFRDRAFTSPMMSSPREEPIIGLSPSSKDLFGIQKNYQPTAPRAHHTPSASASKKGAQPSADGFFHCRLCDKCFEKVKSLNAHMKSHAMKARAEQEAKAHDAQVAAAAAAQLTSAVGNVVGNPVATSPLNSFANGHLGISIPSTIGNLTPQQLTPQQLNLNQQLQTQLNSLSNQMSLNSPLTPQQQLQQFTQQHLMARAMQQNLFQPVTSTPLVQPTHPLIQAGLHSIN

B1: FLAG-tagged ZNF541 (protein, UniProt Q0GGX2 1-1363)
chain: MEPYSLGEEGALPSEGHLPSFSESQVLNCSDTLNRDLGPSTRDLLYAGLSGLDLDPSLSTSDMPSEVLEDNLDTLSLYSGKDSDSVKLLEEYADSESQTSLQDLGLGALKVPKEADEGGRATGSTRKGKRQHSSPQNPLLDCSLCGKVFSSASSLSKHYLTHSQERKHVCKVCSKAFKRQDHLTGHMLTHQKTKPFVCIEQGCSKSYCDYRSLRRHYEVQHGVCILKETPPEEEAYGDPTHNHDVANQPPPSGLRSLGPPEARSPGSVLPNRDLLRCIVSSIVHQKIPSPGPAVGPSDTEARSSACACPTSLGSSSCTPASTPVALGTLGSEIPEETHPPRKEAATEVFTPVQSRAAENGVPDPPESELESESPRLQRPSSLEGWPEGSSLPACLPLFRGHSVPSGSQPSSHNFQWLRNLPGCPKNKGSNVFMVHKPPAVASREGSEGGGSGPSSTPTSVEPSPSLGTTQEELLPFPPALLKAPGEASSEVRQAAGEDETWAPKKCKPDCESFPWQSPTELGLQDAQNPGGLPSDATPLFRQLFMKSQESLVSHEQMQVLQMIAKSQRIFSHTQVATASAQRPGPEGKQSTLKPLQGPWPPQTLPPAPTVDSFQIGPGHSEPEGSPVRRRKTMPAVSRETSPGGPRRDTKGGPKVASAPPSLTGPGLLPSRNPDSSSLAKGTLDLGDIIPNAGSRQSQLGGDEPAGTQLVGKQGQGENGLASGAMRGEKGPACPRGGGYRLFSGHPRAQRFSGFRKEKVKMDVCCAASPSQVAMASFSSAGPLADPPRDMKSKLTIFNRIQGGNIYRLPHPVKEESLAGGCHQPNGGPTDWMESKSTFVCKNCSQMFYTEKGLSSHMCFHSDQWPSPRGKQEQQVKGQMVASVKRKAGREEGAVEDMKRHYDCSSSEPQDVTILSMLVSSGSCGVTPVVLSSLLQGQEKDGEERDSKESCQYRKRKKRPQPKALFAPPAPSALGEPGPGGCHQSCLHSPVFLVDHLLKGLFQCSPYTPPPMLSPIREGSGLYFNTLCSTSRAGPHLISPVLDQVDSSFGICVVKDDTKISIEPHINVGSRFQAEIPELQERLLARVDENVASLVWKPWGDVMTNPETQDRVMELCNVACSSVMPGGGTNLELALHCLHDAQGSVQVALETLLLRGPQKPRTHPLADYRYTGSDIWTPMEKRLFKKAFCAHKKDFYLIHKMIQTKSVAQCVEYYYIWKKMVKFDCGRAPGLEKRGRRELDEVERTEDKVTCSPRERPTHRPTPELKIKTKSYRRESILHSSPSAAPKRTPEPPGSVESQGVFPCRECERVFDKIKSRNAHMKRHRLQEHVEPVRVKWPVKPYPLKEEEEEEEEELGADMGPLQW
Question: How did the binding [1] turn out when B1 was run?
Answer: The binding was “binds”.

B2: FLAG-tagged TRERF1 (protein, UniProt Q96PN7 1-1200)
chain: MGDQQLYKTNHVAHGSENLFYQQPPLGVHSGLNHNYGNAVTGGGMDAPQASPISPHFPQDTRDGLGLPVGSKNLGQMDTSRQGGWGSHAGPGNHVQLRGNLANSNMMWGAPAQAEPTDGYQYTYSQASEIRTQKLTSGVLHKLDSFTQVFANQNLRIQVNNMAQVLHTQSAVMDGAPDSALRQLLSQKPMEPPAPAIPSRYQQVPQQPHPGFTGGLSKPALQVGQHPTQGHLYYDYQQPLAQVPVQGGQPLQAPQMLSQHMQQMQQHQYYPPQQQQQAGQQRISMQEIQTQPQQIRPSQPQPPPQQQQPQQLQLQQRQGSMQIPQYYQPQPMMQHLQEQQQQQMHLQPPSYHRDPHQYTPEQAHTVQLIPLGSMSQYYYQEPQQPYSHPLYQQSHLSQHQQREDSQLKTYSSDRQAQAMLSSHGDLGPPDTGMGDPASSDLTRVSSTLPHRPLLSPSGIHLNNMGPQHQQLSPSAMWPQMHLPDGRAQPGSPESSGQPKGAFGEQFDAKNKLTCSICLKEFKNLPALNGHMRSHGGMRASPNLKQEEGEKVLPPQPQPPLPPPPPPPPPPQLPPEAESLTPMVMPVSVPVKLLPPKPSSQGFTNSTVAAPSARDKPASSMSDDEMPVLEIPRKHQPSVPKAEEPLKTVQEKKKFRHRPEPLFIPPPPSYNPNPAASYSGATLYQSQLRSPRVLGDHLLLDPTHELPPYTPPPMLSPVRQGSGLFSNVLISGHGPGAHPQLPLTPLTPTPRVLLCRSNSIDGSNVTVTPGPGEQTVDVEPRINIGLRFQAEIPELQDISALAQDTHKATLVWKPWPELENHDLQQRVENLLNLCCSSALPGGGTNSEFALHSLFEAKGDVMVALEMLLLRKPVRLKCHPLANYHYAGSDKWTSLERKLFNKALATYSKDFIFVQKMVKSKTVAQCVEYYYTWKKIMRLGRKHRTRLAEIIDDCVTSEEEEELEEEEEEDPEEDRKSTKEEESEVPKSPEPPPVPVLAPTEGPPLQALGQPSGSFICEMPNCGAVFSSRQALNGHARIHGGTNQVTKARGAIPSGKQKPGGTQSGYCSVKSSPSHSTTSGETDPTTIFPCKECGKVFFKIKSRNAHMKTHRQQEEQQRQKAQKAAFAAEMAATIERTTGPVGAPGLLPLDQLSLIKPIKDVDILDDDVVQQLGGVMEEAEVVDTDLLLDDQDSVLLQGDAEL
Question: For B2, which binding [1] is on record?
Answer: Its binding is “binds”.

B3: endogenous, constitutively active EGL-4(K162N) from egl-4(gf) animals (enzyme, UniProt O76360 1-780)
chain: MSSGSRPSSGGGGGGGGASGGAGGGAPGGGGGGIRGFFSKLRKPSDQPNGNQVQVGTRTFEAHELQKLIPQLEEAISRKDAQLRQQQTIVEGHIKRISELEGEVTTLQRECDKLRSVLEQKAQSAASPGGQPPSPSPRTDQLGNDLQQKAVLPADGVQRAKNIAVSAEPTNFENKPATLQHYNKTVGAKQMIRDAVQKNDFLKQLAKEQIIELVNCMYEMRARAGQWVIQEGEPGDRLFVVAEGELQVSREGALLGKMRAGTVMGELAILYNCTRTASVQALTDVQLWVLDRSVFQMITQRLGMERHSQLMNFLTKVSIFQNLSEDRISKMADVMDQDYYDGGHYIIRQGEKGDAFFVINSGQVKVTQQIEGETEPREIRVLNQGDFFGERALLGEEVRTANIIAQAPGVEVLTLDRESFGKLIGDLESLKKDYGDKERLAQVVREPPSPVKIVDDFREEFAQVTLKNVKRLATLGVGGFGRVELVCVNGDKAKTFALKALKKKHIVDTRQQEHIFAERNIMMETSTDWIVKLYKTFRDQKFVYMLLEVCLGGELWTTLRDRGHFDDYTARFYVACVLEGLEYLHRKNIVYRDLKPENCLLANTGYLKLVDFGFAKKLASGRKTWTFCGTPEYVSPEIILNKGHDQAADYWALGIYICELMLGRPPFQASDPMKTYTLILKGVDALEIPNRRIGKTATALVKKLCRDNPGERLGSGSGGVNDIRKHRWFMGFDWEGLRSRTLKPPILPKVSNPADVTNFDNYPPDNDVPPDEFSGWDEGF
Question: For B3, which binding [2] is on record?
Answer: The binding was “binds”.

B4: FLAG-tagged HDA-2 (enzyme, UniProt Q09440 1-507)
chain: MSSDKFKLDTLFDDNDEIIEPDGADVKKRNVAYYYHKDVGHFHYGQLHPMKPQRLVVCNDLVVSYEMPKYMTVVESPKLDAADISVFHTEDYVNFLQTVTPKLGLTMPDDVLRQFNIGEDCPIFAGLWDYCTLYAGGSVEGARRLNHKMNDIVINWPGGLHHAKKSEASGFCYVNDIVLGILELLKYHKRVLYIDIDIHHGDGVQEAFNNSDRVMTVSFHRFGQYFPGSGSIMDKGVGPGKYFAINVPLMAAIRDEPYLKLFESVISGVEENFNPEAIVLQCGSDSLCEDRLGQFALSFNAHARAVKYVKSLGKPLMVLGGGGYTLRNVARCWALETGVILGLRMDDEIPGTSLYSHYFTPRLLRPNLVPKMNDANSAAYLASIEKETLACLRMIRGAPSVQMQNIVGIRLDEIEQIEENERLQKSSKSSIEYEVGKVSEKMEEECFVEEDSKPPSFPPGQDPRRIGQYWGYDRSGLAPPRSHSDVIEEAKYEDRDRRKDLNIPGIP
Question: With B4 as the binder, how does the binding [3] read?
Answer: The binding was “binds”.

B5: FLAG-tagged EGL-4(K162N), constitutively active (enzyme, UniProt O76360 1-780)
chain: B3 chain
Question: Which binding [3] does the source give for B5 here?
Answer: Its binding is “binds”.

Question: What about the binding [4] of the same binder?
Answer: Its binding is “binds”.

B6: FLAG-tagged EGL-4(K499A), kinase dead (enzyme, UniProt O76360 1-780)
chain: B3 chain with N162K, K499A
Question: Which results are given for B6?
Answer: binding [3]: binds; binding [4]: binds

B7: endogenous wild-type EGL-4 (basal state) (enzyme, UniProt O76360 1-780)
chain: B3 chain with N162K
Question: With B7 as the binder, how does the binding [2] read?
Answer: The binding was “no binding”.
